Measurements reported in the supplement of paper PMC3334620.
In all, about 33,000 sequences were measured (“E-score (-0.5 to 0.5)”: median about -0.043, highest 2% from about 0.37 on). This is one part of the list.

Target: T1, Upc2 (UniProt Q12151)
T1 sequence: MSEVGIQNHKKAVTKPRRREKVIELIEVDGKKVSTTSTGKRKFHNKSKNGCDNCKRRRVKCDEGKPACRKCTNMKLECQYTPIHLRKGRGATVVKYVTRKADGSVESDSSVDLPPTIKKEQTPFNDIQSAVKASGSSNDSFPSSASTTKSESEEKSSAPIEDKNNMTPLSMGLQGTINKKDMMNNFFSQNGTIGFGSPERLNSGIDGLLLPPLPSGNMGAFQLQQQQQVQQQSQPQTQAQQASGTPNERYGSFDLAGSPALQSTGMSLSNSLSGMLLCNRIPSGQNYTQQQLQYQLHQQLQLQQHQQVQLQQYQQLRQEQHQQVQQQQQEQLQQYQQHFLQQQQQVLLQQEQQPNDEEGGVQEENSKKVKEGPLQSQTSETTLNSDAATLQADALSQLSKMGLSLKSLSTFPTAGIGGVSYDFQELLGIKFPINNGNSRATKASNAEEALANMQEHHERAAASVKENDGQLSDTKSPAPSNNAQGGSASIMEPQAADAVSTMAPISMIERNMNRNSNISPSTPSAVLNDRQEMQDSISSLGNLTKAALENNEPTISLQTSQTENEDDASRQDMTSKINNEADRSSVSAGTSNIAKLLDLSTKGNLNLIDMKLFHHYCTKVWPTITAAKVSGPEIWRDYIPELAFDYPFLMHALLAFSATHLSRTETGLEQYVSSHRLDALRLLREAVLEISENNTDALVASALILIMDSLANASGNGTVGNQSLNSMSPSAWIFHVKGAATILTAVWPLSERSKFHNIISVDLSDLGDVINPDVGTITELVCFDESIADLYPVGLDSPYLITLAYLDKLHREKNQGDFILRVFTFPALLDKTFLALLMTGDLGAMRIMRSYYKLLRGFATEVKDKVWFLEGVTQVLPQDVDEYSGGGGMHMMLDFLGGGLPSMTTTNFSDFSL
Assay: PBM E-score (8-mer binding enrichment) (E-score (-0.5 to 0.5)); higher = stronger / more preferred TF binding; most listed sequences are background and not binding sites
Settings: protein concentration: 200 nM; construct: GST-full length
In short: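 GST-tagged yeast TFs (full-length or DNA-binding domain) were made by PURExpress in vitro transcription/translation and applied at about 100-200 nM to universal all-10-mer Agilent arrays. The arrays were made double-stranded by primer extension, on fresh or once-stripped slides. Bound protein was detected with fluorescent anti-GST, and scans were normalised with masliner. Each ungapped eight-base word, pooled with its reverse complement, received an E-score (modified Wilcoxon-Mann-Whitney statistic) from the Universal PBM Analysis Suite.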

Sequence	PBM E-score
CCCGAGGC	-0.1
ATGCCAAG	-0.107
CCAACTCG	0.0935
ACGGGTTA	0.259
CCTGCCGA	-0.16
TCCATAGA	-0.3
GTACACTA	0.0604
CTATGGCC	-0.34
ACAAATGG	0.0454
CTGTACTA	-0.0771
CTACACGC	-0.257
AAGTTACA	-0.134
TAGTGTGA	0.0555
AGTCGCGA	0.175
AGCTATCC	-0.194
AGGTTCAT	-0.041
CGTAACTC	0.237
CATACCAC	0.0195
CCGCGTGC	-0.139
GATTAAAA	0.0648
CACATGGC	-0.0315
AGAAGACC	-0.236
CATATTTC	0.00061
CCGATTGC	0.00685
CGTTCCCA	0.373

Sequence	PBM E-score
CAACAATG	-0.0499
CCCCATAG	-0.104
GTGGACAC	-0.158
AGCATCAG	0.00127
ATAGTCCA	-0.171
CCGTCGAA	0.0446
ACGAGGTA	0.382
AAATATTA	0.229
ATCAATCC	-0.217
ACACTATG	-0.0971
ACTTGTAT	-0.0309
GGGCAACC	-0.112
AGCTCAAG	-0.193
CTATAGGC	-0.135
CTTGAAAG	-0.0901
CCACCGAG	-0.23
GCGCGAGC	-0.13
TACCCAAA	0.0123
CCGCAAAC	0.174
GCACGCGA	-0.0589
CTAAGTCC	-0.26
GGGGTGAC	-0.0843
CTGAGTTC	0.0433
CTCACTCC	-0.322
GCACTACC	0.0706

Sequence	PBM E-score
GAATGAAC	0.145
AGGTAACA	-0.11
GCAATCCC	-0.067
AAGCAGCG	-0.0244
ACAGTCGA	-0.0401
AAAAGAAA	0.102
GAACCCGA	0.0311
CAGAACGC	-0.0286
CCCTCGGC	-0.0234
GAGTCTCC	-0.166
CAAATCTA	0.0813
GCAAACAC	-0.00637
CTGTTCTC	0.0583
CGCGAACC	0.192
CGACAAAG	0.16
AAGTTTTC	0.1
ATTCCTGC	-0.0454
CATGAAGA	-0.0719
AAGGGAGT	-0.268
GTCCTATA	0.143
AGACGAAG	0.0695
AAATGCAA	-0.148
CGACGATA	0.169
AACGTGGA	0.139
ACGCAAAG	0.0103

Sequence	PBM E-score
AAAGTCCT	-0.142
GTGTCTAA	-0.0973
ACGACTTG	0.214
CTGCTTAC	0.0628
AGCCCACG	0.0285
ACAACAGC	-0.059
AGTTCTGA	-0.229
CGCGTATC	0.253
ATTCCGGG	-0.196
AGGTAATC	-0.0565
AAAGGGCA	-0.298
ATAAGACA	0.158
CAACTTCA	-0.0217
TGGGAACA	-0.162
GAGAGACC	-0.274
ACGTCCGC	0.0785
ACTCGAAA	0.032
TACATCTA	0.0402
ACAACCGT	0.177
ACAACCTA	-0.0634
ACATGGCC	-0.106
TTGACCAA	-0.179
CGAAGGAG	0.0415
ACGAGTCG	0.384
CGTAACAA	0.218

Sequence	PBM E-score
ATAAACTA	0.0359
ATTCTGTC	0.111
ACATAGCT	-0.218
GTCTCTGA	0.0241
CGCTTTAA	0.0631
AATGTCAC	-0.182
TCACTTAA	-0.0131
ACCATTAG	-0.138
GTAATACA	0.111
ATATTGAC	-0.126
AAGCCCCT	-0.0302
GTTGTCAA	-0.00594
GGAATACC	-0.106
AGAAAACC	0.0183
GCTATTAA	-0.0587
CCCGGTCA	-0.343
GCACATGA	-0.186
GACGCGGC	-0.167
CAAGCGGC	-0.119
ACTTGACA	-0.161
CTCTTTAC	0.134
CGACGTTA	0.197
ACTACGGC	-0.155
AATGGATG	-0.0585
ACAGGTAA	-0.0299

Sequence	PBM E-score
ACACAACA	0.0766
AATGTTTC	-0.0346
TCCCGAAA	-0.0081
AGTGGTAT	-0.078
AATCGCCA	-0.0984
TCAAGGAA	-0.169
AAGAGTGC	0.084
ACAAGTAT	0.0931
AATTTGGT	0.0769
ATGCTCCG	-0.0329
ACCACCCA	-0.115
AGACTTAC	0.00516
GTTCTGGA	0.194
CTCGTCCC	-0.109
CTCCAGCC	-0.143
ATTATTTG	0.103
ACCTTTCG	0.0612
CTTCCCAA	-0.0805
GATATAAC	0.0872
GTGGGGGA	-0.0719
ATCACCCG	-0.0602
CGATTGGC	-0.0394
AAGTAAGC	-0.0673
CCGAGGTC	0.0232
TCTCCTCA	-0.127

Sequence	PBM E-score
GGAGTCTA	-0.43
ATCCTTAA	-0.108
GCCTAAGA	-0.168
GAGTCCGA	0.021
GTGACTAA	-0.14
ACCCACGA	-0.072
GAGGCTGA	-0.376
ATATCTCA	0.0282
GGCGAGTA	-0.122
TACGAGTA	0.453
GAAGTAGC	-0.138
AACCACAT	-0.0732
GATGGGGA	-0.161
GTGGCCAA	-0.135
GGCCTTTA	-0.0177
ACCTGCGT	0.0477
CGCATACG	0.439
CCTTAAGG	0.0757
GGGTTGAA	-0.00166
ATCAGTCC	-0.324
CGCTAGGA	-0.174
CGAGTAGA	0.185
